Experimental data from PubChem BioAssay AID485297 (National Center for Advancing Translational Sciences (NCATS), 2010).
The whole screen tested about 320,000 compounds, of which about 9,100 (2.8%) were called active. Inconclusive means that the source gave no clear call. Such entries were picked first, then a sample of the others. Calls come from the whole dose curve; as a rule, active = well fitted activation curve with a large enough effect; inconclusive = small, poorly fitted or top-dose-only effect; inactive = no such curve, though single readings can be large or run the other way. Potencies of inconclusive entries are left out as doubtful fits.

Assay: qHTS Assay for Rab9 Promoter Activators; note: nearly all actives have a fitted effect of over 60% in size; for activation, negative = inhibition: % of control where 0% means no effect
Settings: Huh7 Rab9 promoter-luciferase reporter, luminescence, 24 h; series mostly up to 9.22 µM; activation, negative = inhibition: at the top concentration
Summary of the method: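 Stable Rab9-luc Huh7, 1500 cells/well, 2 h settle; cmpd in DMSO, 24 h, 37 °C/5% CO2; luciferase reagent 10 min RT; luminescence.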
Potency is the fitted concentration of half-maximal effect; tags give direction and shape of the fitted curve.

Structure (SMILES) | activation, negative = inhibition | Potency
Cc1c(Cl)cccc1NC(=O)COC(=O)c1c2c(nc3ccccc13)CCN(Cc1ccccc1)C2 | inactive: -1.79% | –
O=C(Nc1ccc2oc(-c3ccccc3)nc2c1)c1cc(-n2cnnc2)ccc1Cl | – | inconclusive [activator, single point]
CCCCNC(=O)Nc1nc2ccc(CC)cc2s1 | – | inconclusive [activator, partial curve]
O=C(N/N=C/c1nn(-c2ccccc2)cc1-c1ccc(Cl)cc1)c1ccncc1 | – | inconclusive [activator, single point]
CC(C)(C)c1ccc(NC(=O)NCc2ccco2)cc1 | – | inconclusive [activator, partial curve]
CCC[C@H]1COCCS(=O)(=O)N1Cc1ccccc1 | inactive: 2.41% | –
COc1cc(OC)cc(C(=O)Nc2nc3ccc(S(C)(=O)=O)cc3s2)c1 | – | inconclusive [activator, partial curve]
O=C(O)c1cccc(OCc2ccccc2Cl)c1 | – | inconclusive [activator, full curve]
CC(=O)c1ccc(S(=O)(=O)N2CCCC2)cc1 | – | inconclusive [activator, single point]
O=C(CSc1nnc(-c2ccccc2F)o1)N1CCNC1=O | – | active: 3.16 µM
Oc1[nH]c2ccccc2c1/C=N/c1nccs1 | – | inconclusive [activator, single point]
COc1ccc(-c2coc3cc(O)ccc3c2=O)cc1O | – | inconclusive [activator, single point]
O=C(NC(=S)Nc1ccc(Cl)cc1Cl)C1CC1 | – | active: 2.82 µM
CCCn1c(=S)[nH]c2sc3c(c2c1=O)CCCC3 | inactive: 1.73% | –
Cc1cccc(NC(=S)NC(=O)c2ccc(Br)o2)c1 | – | inconclusive [activator, partial curve]
Cc1ccc(OCC(O)CN2CCOCC2)cc1C (stereo not given) | inactive: -2.52% | –
CC(C)CC(=O)Nc1ccc(C(=O)Nc2cccc(O)c2)cc1 | – | inconclusive [activator, single point]
COn1c(-c2ccccc2)nc2ccc(Cl)cc21 | – | inconclusive [activator, partial curve, poor fit]
O=C1NC(=O)/C(=C/c2ccc3c(c2)OC(F)(F)O3)S1 | – | inconclusive [activator, full curve]
O=S(=O)(Nc1ccc2nc(C(F)(F)F)[nH]c2c1)c1ccccc1 | inactive: -8.36% | –
COc1cccc(-n2c(COc3ccc(C)cc3)nnc2SCC(=O)O)c1 | inactive: 0.15% | –
COCCN(C(=O)COC(=O)/C=C/c1ccc2ccccc2n1)c1c(N)n(Cc2ccccc2)c(=O)[nH]c1=O | inactive: 1.73% | –
Cn1c(/C=C/c2ccc(Br)cc2)nc2ccccc2c1=O | – | inconclusive [activator, partial curve]
CCOC(=O)Cc1csc(NS(=O)(=O)c2ccc(SC)cc2)n1 | inactive: -6.93% | –
CC1CN(Cc2ccccc2)C(C)CC1O (stereo not given) | inactive: -4.18% | –
Cc1ccc(/C=C/C(=O)NCCc2ccccc2)o1 | – | inconclusive [activator, single point]
CCOc1ccc(CN(C)CC(=O)NCc2ccccc2Cl)cc1 | inactive: 0.435% | –

Structure (SMILES) | activation, negative = inhibition | Potency
COc1ccc(-n2nc([N+](=O)[O-])c(=NCc3cccnc3)n2O)cc1 | – | active: 2.82 µM
NNC(=O)c1ccc(Cn2cccn2)o1 | inactive: 0.781% | –
O=C(CNS(=O)(=O)c1cccs1)N1CCc2ccccc2C1 | – | inconclusive [activator, single point]
FC(F)(F)c1cccc(-c2nc3nc(Cl)c(Cl)nc3[nH]2)c1 | – | inconclusive [activator, partial curve]
CC(=O)Nc1cccc(/C(C)=N/NC(=O)c2cccs2)c1 | inactive: 2.32% | –
CCOC(=O)CNC(=O)CSc1nnc(NC(=O)c2ccccc2Cl)s1 | – | inconclusive [activator, single point]
Cc1cccc(NC(=O)Nc2ccccc2)n1 | – | inconclusive [activator, single point]
CCCC(C)NC(=O)/C=C/c1cccc([N+](=O)[O-])c1 (stereo not given) | inactive: 15.5% | –
COc1ccc(Nc2nnc(SCC(=O)NC3CC3)s2)cc1 | inactive: -2.54% | –
Nc1ccccc1SCC(=O)N1CCc2ccccc21 | – | inconclusive [activator, single point]
CC(=O)c1cccc(NC(=O)c2ccc3c(c2)CCCC3)c1 | – | active: 3.98 µM
O=C(NN=C1CCCCCC1)c1cn(-c2ccccc2)nc1-c1ccccc1 | inactive: 0.928% | –
N#CC(C(=O)CCN1C(=O)C2CC=CCC2C1=O)c1nc2ccccc2[nH]1 (stereo not given) | inactive: 0.347% | –
COc1cc(C(=O)Oc2ccccc2/C=N/NC(=O)c2ccc(C)cc2)cc(OC)c1OC | – | inconclusive [activator, partial curve]
O=C(COC(=O)c1cccc(-n2cnnn2)c1)c1ccc(Br)cc1 | – | inconclusive [activator, partial curve]
Cc1c(C(=O)NCc2ccco2)oc2ccc(Br)cc12 | inactive: 16.5% | –
O=C(NC(=S)NCCC1=CCCCC1)c1ccco1 | – | inconclusive [activator, single point]
COc1ccccc1C(=O)Nc1ccccc1SC(=O)c1ccccc1OC | – | inconclusive [activator, single point]
COc1ccc(C(=O)Nc2cccc3cccnc23)cc1OC | inactive: -5.52% | –
CC1(C)C=Cc2cc3ccc(=O)oc3cc2O1 | – | inconclusive [activator, single point]
Cc1ccc(/C=N\NC(=O)c2ccc3c(c2)OCO3)o1 | – | inconclusive [activator, partial curve]
O=C(Nc1ccc(F)cc1F)c1cc2nc3c(c(C(F)(F)F)n2n1)CCCC3 | – | active: 0.562 µM
C=CCn1c(N)c(C(=O)NCCC2=CCCCC2)sc1=S | inactive: 19.5% | –
Fc1ccccc1Nc1n[nH]c(=S)s1 | – | inconclusive [activator, single point]
C=CCc1ccc(OCCOCCN(C)C)c(OC)c1 | inactive: 0.545% | –
Cc1cc(C)c(C2C(C#N)=C(N)Oc3n[nH]c(C)c32)cc1CN1CCOCC1 (stereo not given) | inactive: -3.16% | –
Cc1ccc(NC(=O)NC(=O)c2cnccc2C(F)(F)F)c(C)c1 | inactive: -3% | –

Structure (SMILES) | activation, negative = inhibition | Potency
CSc1ncccc1C(=O)OCc1ccccc1 | – | inconclusive [activator, single point]
CC(C)(C)c1cc(C(=S)N2CCCC2)cc(C(C)(C)C)c1O | inactive: -7.18% | –
O=c1/c(=C\c2ccc(F)cc2)sc2n1CCCN=2 | – | inconclusive [activator, single point]
O=C(NCCc1ccccc1)c1c(O)c2ccccc2[nH]c1=O | – | inconclusive [activator, partial curve]
CCN(CC)C(=O)/C=C/c1ccc(OC)c(S(=O)(=O)N2CCCCC2)c1 | inactive: -3% | –
Cc1ccc(C(=O)c2cn[nH]c2-c2ccccc2O)cc1 | – | inconclusive [activator, partial curve]
O=C(c1cc2nc(-c3ccc(F)cc3)cc(C(F)(F)F)n2n1)N1CCOCC1 | – | inconclusive [activator, partial curve]
Cc1ccccc1OCc1nc2ccccc2c(=O)n1N | – | inconclusive [activator, single point]
COc1ccccc1-c1cc2ccccc2[nH]1 | – | inconclusive [activator, single point]
Cc1ccc(S(=O)(=O)Nc2cccc(-c3ccc(N4CCCCCC4)nn3)c2)c(C)c1 | – | inconclusive [activator, single point]
CCc1ccc(N=c2c([N+](=O)[O-])nn(-c3ccc4c(c3)OCCO4)n2O)cc1 | – | inconclusive [activator, single point]
COC(=O)c1ccc(-c2ccc(/C=N/NC(=O)CC3(C)OCCCO3)o2)cc1 | – | inconclusive [activator, single point]
COc1cc(/C=C/C(=O)c2ccc(NS(=O)(=O)c3ccc(C)cc3)cc2)cc(OC)c1O | inactive: -5.2% | –
O=C(CSc1nnc(-c2ccccc2Cl)o1)Nc1ccccn1 | – | active: 0.562 µM
COc1ccc2nc(NC(=O)CSc3nc(SC)ns3)sc2c1 | – | inconclusive [activator, single point]
COc1ccc(C(=O)CCC(=O)NC2=NCCS2)cc1 | inactive: 2.32% | –
CC1CN(C(=O)c2cccc(COc3ccccc3Cl)c2)CC(C)O1 (stereo not given) | – | inconclusive [activator, partial curve]
Cc1ccc2nc(N/C(=N/S(=O)(=O)c3ccc(F)cc3)c3ccccc3)sc2c1 | – | inconclusive [activator, single point]
Cc1ccsc1/C=N/NC(=O)c1ccc2ccccc2c1 | – | inconclusive [activator, partial curve]
CCS(=O)(=O)n1nc(-c2ccc(OC)cc2)nc1SC | – | inconclusive [activator, partial curve]
COc1ccccc1C(=O)NC1CCCCCCC1 | inactive: -0.622% | –
O=C(OCCOc1ccccc1)c1n[nH]c2ccccc12 | – | active: 2.24 µM
CCCC(=O)NC(c1ccccc1)c1ccc2cccnc2c1O (stereo not given) | inactive: -46% | –
O=C1c2ccccc2S(=O)(=O)N1CC1CC(c2ccc(Cl)cc2)=NO1 (stereo not given) | – | active: 2.24 µM
COc1ccc(S(=O)(=O)N(CCc2ccccc2)CC(=O)N/N=C/c2ccc3c(c2)OCO3)cc1 | inactive: -3.33% | –
O=c1nc(Nc2ccccc2)oc2ccccc12 | – | inconclusive [activator, single point]
